Experimental data published in the RNAGym collection of RNA variant scans (doi:10.7554/elife.90254).
The source gives no read counts; variants with many changes may rest on few reads.

B1: LINE1-full (parent)
chain: UACGUAGGUGGUUUUCCCCUGAUAGUGCUAAGGGGGCCUGGAAGUUUGGACUGGGCAGAGCUCAACACAGCGUGGCAAAGUGGCUGUGGCUAGACUGCCUCUCUGGAUUCCUCGUCACUCAGCAGGGCAUCUCUGAGAGAAAUGCC

Variants of: B1
Test: self-cleavage, relative activity (ratio to wild type); higher = more cleavage; in vitro, sequencing; the parent is a self-cleaving ribozyme

For U9A U13C A64C G127A U143A, which self-cleavage is on record?
Its self-cleavage is 0.38.

For A59U C99U U109C, which self-cleavage is on record?
The self-cleavage was 0.39.

For A50G G125U U143G, which self-cleavage is on record?
The self-cleavage was 1.21.

Which self-cleavage does the source give for U14C U62C U100A here?
The self-cleavage was 0.18.

With C66U C95U A117U C120U A136G as the variant, how does the self-cleavage read?
The self-cleavage was 0.

Which self-cleavage does the source give for U87A A121G A140G U143C here?
The self-cleavage was 0.

With U15C A22G A42G U46C as the variant, how does the self-cleavage read?
The self-cleavage was 1.72.

With U85A G106A A124U A129G C145U as the variant, how does the self-cleavage read?
The self-cleavage was 0.09.

For U62A U81G A94U, which self-cleavage is on record?
Its self-cleavage is 0.04.

For U85C U96A A129U U130C, which self-cleavage is on record?
Its self-cleavage is 0.

For U39C A136G A142G, which self-cleavage is on record?
Its self-cleavage is 1.55.

Which self-cleavage does the source give for U46C U112A A136U here?
Its self-cleavage is 1.74.

For U9A A30U U115A A138G A140G, which self-cleavage is on record?
The self-cleavage was 1.46.

For G11A U52C A77U A107U, which self-cleavage is on record?
The self-cleavage was 0.96.

For U5C U26A A77G A107G, which self-cleavage is on record?
Its self-cleavage is 1.95.

Which self-cleavage does the source give for U62G U81C A107U U109A A124G here?
The self-cleavage was 0.51.

For U9A U26C U143A, which self-cleavage is on record?
Its self-cleavage is 0.81.

With U13C A65G A77G as the variant, how does the self-cleavage read?
Its self-cleavage is 0.74.

With G40U U45A U47A as the variant, how does the self-cleavage read?
The self-cleavage was 0.97.

Which self-cleavage does the source give for A2G U39A U85C U115C U119C A141G here?
The self-cleavage was 0.

With U9G A64G A94U as the variant, how does the self-cleavage read?
Its self-cleavage is 0.12.

For U15C U73C A121G, which self-cleavage is on record?
Its self-cleavage is 2.3.

Which self-cleavage does the source give for A6G G7U A59U A94G U130C A141U here?
Its self-cleavage is 1.97.

With U12C A59G A67U as the variant, how does the self-cleavage read?
The self-cleavage was 0.12.

With U46A U73C A138C as the variant, how does the self-cleavage read?
The self-cleavage was 1.9.

Which self-cleavage does the source give for U39C U130C A138G here?
Its self-cleavage is 1.39.

Which self-cleavage does the source give for U5C U73G G125A here?
Its self-cleavage is 0.81.

With A50U A107G C145G as the variant, how does the self-cleavage read?
Its self-cleavage is 0.93.

Which self-cleavage does the source give for A65G U85A U87A A94U here?
The self-cleavage was 0.

Which self-cleavage does the source give for U13A A77G C118U U143C here?
The self-cleavage was 1.75.

With U109C G114A G137A as the variant, how does the self-cleavage read?
Its self-cleavage is 0.71.

Which self-cleavage does the source give for U23A U62A A69G A79U A121U here?
The self-cleavage was 0.02.

For A57G U130C U134A, which self-cleavage is on record?
Its self-cleavage is 0.

With G21U C37U U52C U143C as the variant, how does the self-cleavage read?
Its self-cleavage is 0.81.

Which self-cleavage does the source give for U20C G58U U73C U91C here?
The self-cleavage was 0.15.

For U15C U109G C118A, which self-cleavage is on record?
Its self-cleavage is 0.72.

For U29A A59G A77G A140G, which self-cleavage is on record?
The self-cleavage was 0.15.

With A77C C128U A141G as the variant, how does the self-cleavage read?
The self-cleavage was 0.48.

For U20C U87G U132A, which self-cleavage is on record?
Its self-cleavage is 0.14.

Which self-cleavage does the source give for U23C G58U A69G here?
Its self-cleavage is 0.05.

Which self-cleavage does the source give for G34A U46C U47G here?
The self-cleavage was 0.84.

For C37G U73A A140G, which self-cleavage is on record?
The self-cleavage was 0.45.

Which self-cleavage does the source give for C3U A42G A67U A77U A121U here?
The self-cleavage was 0.17.

With U52A A57G U109C as the variant, how does the self-cleavage read?
Its self-cleavage is 0.3.

With U73G U91C A142C as the variant, how does the self-cleavage read?
The self-cleavage was 0.72.

Which self-cleavage does the source give for U20C G25A A50G A67G here?
Its self-cleavage is 0.66.

For G21A U45G A59U A78G U108C A138G, which self-cleavage is on record?
The self-cleavage was 0.73.

With U15A U112C A136G as the variant, how does the self-cleavage read?
Its self-cleavage is 1.29.

With U108C G137U A141G as the variant, how does the self-cleavage read?
Its self-cleavage is 0.76.

Which self-cleavage does the source give for A22G C56U A140U here?
Its self-cleavage is 0.15.

Which self-cleavage does the source give for U13A U85A A107C A138G A141G here?
Its self-cleavage is 0.11.

For A69U U73C C76U A121U A138G, which self-cleavage is on record?
Its self-cleavage is 0.2.

For U13A A22G A78U A94G A121U, which self-cleavage is on record?
The self-cleavage was 0.26.

Which self-cleavage does the source give for U73A C103A A141G here?
The self-cleavage was 1.8.

Which self-cleavage does the source give for U9C G41A U81C A129G A140G here?
The self-cleavage was 1.94.

With A64U U73G U81C as the variant, how does the self-cleavage read?
Its self-cleavage is 0.33.

Which self-cleavage does the source give for G4A U14C G97A here?
The self-cleavage was 0.08.

For A30G A50G G53A U134A A140G, which self-cleavage is on record?
The self-cleavage was 0.

Which self-cleavage does the source give for A42G U73C U87A here?
The self-cleavage was 0.32.

For C61A U96C A107G A136G, which self-cleavage is on record?
Its self-cleavage is 0.05.

With C18U G25A A42G A65G U119C as the variant, how does the self-cleavage read?
Its self-cleavage is 0.12.

Which self-cleavage does the source give for C84U U119C A129U here?
The self-cleavage was 0.08.

With A59C U100A U104G as the variant, how does the self-cleavage read?
Its self-cleavage is 1.9.

Which self-cleavage does the source give for U12C U62A U73C here?
Its self-cleavage is 0.

Which self-cleavage does the source give for U12G A94G U134C A136G here?
The self-cleavage was 0.38.

Which self-cleavage does the source give for G4A U5C U46C G72A U132C here?
Its self-cleavage is 0.91.

With U12A C113U U130G as the variant, how does the self-cleavage read?
Its self-cleavage is 1.26.

With U13C U46C A117U as the variant, how does the self-cleavage read?
Its self-cleavage is 1.1.

Which self-cleavage does the source give for U12C U62C A78G here?
Its self-cleavage is 0.2.

For U45C U81C A94U, which self-cleavage is on record?
Its self-cleavage is 0.

Which self-cleavage does the source give for U20A A79G C120U here?
Its self-cleavage is 1.19.

Which self-cleavage does the source give for U23A U39C U102C A124U U134C here?
The self-cleavage was 1.24.

For U20C A79G A138G A141G, which self-cleavage is on record?
Its self-cleavage is 1.56.

With A57U U62C G106A as the variant, how does the self-cleavage read?
The self-cleavage was 0.03.

For G8A U20A G49A A50G A140U A142U, which self-cleavage is on record?
The self-cleavage was 1.31.

Which self-cleavage does the source give for U15C A22G G53A U108C here?
Its self-cleavage is 2.14.

With A6G U45A U46C U52C U81C as the variant, how does the self-cleavage read?
The self-cleavage was 0.84.

For U13C U104G G122C, which self-cleavage is on record?
The self-cleavage was 1.46.

With U102C U115A A121C as the variant, how does the self-cleavage read?
Its self-cleavage is 1.53.

Which self-cleavage does the source give for G11C A31U U108C A124G here?
The self-cleavage was 2.12.

With U20C U45A G83A G139A as the variant, how does the self-cleavage read?
Its self-cleavage is 1.03.

Which self-cleavage does the source give for A65U A92G U108C A124U U143C here?
Its self-cleavage is 0.13.

With U12C C68U U102C as the variant, how does the self-cleavage read?
The self-cleavage was 0.25.
